“And” between values parts separate entries of the source, which are not always exact repeats. Identical values can stand only once. Screen size: about 270,000 compounds; about 5,800 (2.1%) were called active. This list was built around the results that the source calls inconclusive (neither active nor inactive); the mix of calls is not that of the screen. Calls follow the shape of the dose curve; as a rule, active = well fitted inhibition curve with a large enough effect; inconclusive = small, poorly fitted or top-dose-only effect; inactive = flat fitted curve, though single readings scatter. Potencies of inconclusive entries are doubtful fits and often do not repeat.
Target: Microtubule-associated protein tau (Homo sapiens) (UniProt P10636)
Test: qHTS for Inhibitors of Tau Fibril Formation, Thioflavin T Binding; also: nearly all actives have a fitted effect of over 55% in size
Settings: recombinant tau K18 P301L (four-repeat tau fragment), heparin-induced fibrillization, ThT fluorescence; series mostly up to 57.4 µM; activity, negative = inhibition: at the top concentration
Method in brief: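 K18 P301L tau (15 uM + 0.24 uM Alexa 594-tagged), heparin 20 uM, NaOAc pH 7, 6 h 37 C; ThT 30 uM, 1 h RT, ex 450/em 510 nm.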
% is scaled to controls: 0 for no effect and ±100 for the full control effect; potency is read from the fitted curve at half-maximal effect; tags tell the direction and shape of the fitted curve.

Chain of UniProt P10636 (P10636 whole entry, looked up): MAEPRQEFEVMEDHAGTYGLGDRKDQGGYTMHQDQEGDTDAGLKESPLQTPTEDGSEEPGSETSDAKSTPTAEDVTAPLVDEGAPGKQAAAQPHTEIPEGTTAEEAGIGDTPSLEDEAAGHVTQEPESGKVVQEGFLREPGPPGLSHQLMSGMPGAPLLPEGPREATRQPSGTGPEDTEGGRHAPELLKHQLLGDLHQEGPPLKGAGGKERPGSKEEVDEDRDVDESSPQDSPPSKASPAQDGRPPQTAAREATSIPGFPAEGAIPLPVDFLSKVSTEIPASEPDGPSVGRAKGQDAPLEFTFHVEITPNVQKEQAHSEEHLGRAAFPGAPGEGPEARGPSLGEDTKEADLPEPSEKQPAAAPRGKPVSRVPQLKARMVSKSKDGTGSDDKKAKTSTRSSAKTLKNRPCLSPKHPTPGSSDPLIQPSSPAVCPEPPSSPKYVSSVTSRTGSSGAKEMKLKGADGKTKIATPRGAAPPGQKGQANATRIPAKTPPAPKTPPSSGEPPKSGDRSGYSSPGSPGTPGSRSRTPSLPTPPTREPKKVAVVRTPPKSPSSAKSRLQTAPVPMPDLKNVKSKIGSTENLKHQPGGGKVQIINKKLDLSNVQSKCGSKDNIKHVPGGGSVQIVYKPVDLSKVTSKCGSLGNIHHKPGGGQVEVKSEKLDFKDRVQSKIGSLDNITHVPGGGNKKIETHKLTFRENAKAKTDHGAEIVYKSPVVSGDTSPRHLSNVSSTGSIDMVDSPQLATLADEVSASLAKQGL

Row | SMILES | Potency | activity, negative = inhibition
1 | Cc1ccc(C(=O)Nc2nnc(S(=O)(=O)N3CCCCCC3)s2)cc1 | inconclusive: 14.1 µM [inhibitor, partial curve] | 
2 | CC(=O)NC1Sc2ccccc2N=C1c1ccccc1 (stereo unspecified) | inconclusive: 25.1 µM [inhibitor, partial curve] | 
3 | CC(C)[N+]1(C)[C@@H]2CC[C@H]1CC(OC(=O)[C@@H](CO)c1ccccc1)C2 (stereo partly specified) |  | inactive: -8.39%
4 | COC(=O)[C@@]1(Cc2ccc(F)cc2)[C@H]2c3cc(C(=O)N(C)C)n(Cc4ccc(C)o4)c3C[C@H]2CN1C(=O)c1ccccc1 | inconclusive: 31.6 µM [inhibitor, partial curve, poor fit] | 
5 | Cc1c(CCO)c(=O)n(-c2ccccc2)n1S(=O)(=O)c1c(Cl)cc(Cl)cc1Cl | inconclusive: 39.8 µM [inhibitor, single point] | 
6 | O=c1c(NCc2ccccc2Cl)nccn1-c1ccccc1 |  | inactive: -0.633%
7 | O=C(CSc1nncs1)N1CCN(S(=O)(=O)c2ccccc2)CC1 |  | inactive: -1.28%
8 | COc1ccc(NC(=O)c2ccc(-c3ccc(-c4noc(C)n4)cc3C)cc2)cc1N1CCN(C)CC1 | inconclusive: 28.2 µM [inhibitor, partial curve] and inconclusive: 7.94 µM [inhibitor, partial curve] | 
9 | Cn1cnc([N+](=O)[O-])c1Oc1cccc(O)c1 | inconclusive: 20 µM [inhibitor, partial curve] | 
10 | O=c1c(Br)c(Br)cnn1-c1ccccc1 | active: 31.6 µM | 
11 | COc1ccc(CCNC(=O)CC2Nc3ccccc3NC2=O)cc1OC (stereo unspecified) | inconclusive: 22.4 µM [inhibitor, partial curve] | 
12 | Cc1ccc(S(=O)(=O)Cn2nnnc2CN(Cc2ccco2)Cc2cccs2)cc1 |  | inactive: -16.1%
13 | C/C(=N\Nc1cccc2cccnc12)c1ccccc1O | inconclusive: 5.01 µM [inhibitor, full curve] | 
14 | O=C(NC(=S)N1CCN(c2ccc(O)cc2)CC1)c1cccs1 | inconclusive: 31.6 µM [inhibitor, partial curve] | 
15 | C=CCn1c(COc2ccc(F)cc2)nnc1SCC(=O)c1c[nH]c2c(CC)cccc12 |  | inactive: 0.64%
16 | COc1ccc(-n2cnnc2SCC(=O)Nc2cc(S(=O)(=O)N3CCCCC3)ccc2C)cc1 |  | inactive: 1.96%
17 | CC(C)OC(=O)[C@H]1[C@H](c2ccc(Cl)cc2)[C@@](C#N)(C(N)=O)[C@@H]2C=CC(C(N)=O)=CN21 | inconclusive: 20 µM [inhibitor, partial curve] | 
18 | CN(C)c1ccc(/C=N/NC(=O)c2ccco2)cc1 | inconclusive: 12.6 µM [inhibitor, partial curve] | 
19 | Oc1ccc(/C=N/Nc2ccc3ccccc3c2)c(O)c1 | active: 17.8 µM | 
20 | O=C(O)Cn1cc(C(=O)c2ccco2)c2ccccc21 |  | inactive: -6.9%
21 | N#CCCN(C(=O)COc1ccc(F)cc1Br)c1ccccc1F |  | inactive: -7.27%
22 | O=C(Cn1nc(-c2ccccc2)nc(Cc2ccccc2)c1=O)Nc1ccc(Cl)cc1 |  | inactive: 9.07%
23 | O=C(COC(=O)CCC(=O)c1ccc(F)cc1)Nc1ccc(N2CCOCC2)cc1 | inconclusive: 8.91 µM [inhibitor, partial curve] | 

Row | SMILES | Potency | activity, negative = inhibition
24 | Cc1c(N2C(=O)c3ccc4c5c(ccc(c35)C2=O)CC4)c(=O)n(-c2ccccc2)n1C | inconclusive: 12.6 µM [inhibitor, partial curve] | 
25 | CC1(OC(=O)c2ccco2)C(=O)C=C2C=C(c3ccsc3)OC=C2C1=O (stereo unspecified) | inconclusive: 25.1 µM [inhibitor, partial curve] | 
26 | O=C(NCCc1nc2ccccc2[nH]1)/C(=C/c1ccc2c(c1)OCO2)NC(=O)c1ccc(Cl)cc1Cl |  | inactive: -7.21%
27 | COc1cccc(C2C(C(=O)/C=C/c3ccco3)=C(O)C(=O)N2CCN2CCOCC2)c1 (stereo unspecified) | inconclusive: 17.8 µM [inhibitor, partial curve] | 
28 | CCc1nnc(NC(=O)c2ccc3ccccc3n2)s1 | inconclusive: 7.08 µM [inhibitor, full curve] | 
29 | O=[N+]([O-])c1cccnc1N1CCN(c2ccccc2F)CC1 | inconclusive: 17.8 µM [inhibitor, partial curve, poor fit] | 
30 | O=C(Nc1nc2ccccc2s1)c1ccc(N2CCCCC2)c([N+](=O)[O-])c1 | active: 4.47 µM | 
31 | O=C(Oc1c(Cl)cc(Cl)c2cccnc12)c1ccco1 | inconclusive: 35.5 µM [inhibitor, single point] | 
32 | O=C(Nc1c2c(nn1-c1ccc(F)cc1)CS(=O)(=O)C2)C12CC3CC(CC(C3)C1)C2 |  | inactive: 4.17%
33 | CC(=O)Nc1ccc(C)c([N+](=O)[O-])c1 |  | inactive: -2.19%
34 | CN(C)c1ccc(NC(=O)c2cnsn2)cc1 | active: 10 µM | 
35 | CCOC(=O)CNc1c(-c2ccc(OC)cc2)nc2ccc(Cl)cn12 | inconclusive: 17.8 µM [inhibitor, partial curve] | 
36 | O=C1N=C(N2CCOCC2)S/C1=C\c1cccs1 |  | inactive: -23.9%
37 | CCCCCCCCNC1=CC(=O)CC(C)(C)C1 | inconclusive: 28.2 µM [inhibitor, single point] | 
38 | C/C(=N\OC(=O)c1ccc(Br)cc1)c1ccccn1 | inconclusive: 3.16 µM [inhibitor, full curve] | 
39 | CC(=O)c1cc(C#N)c(SCC(=O)OC(C)C)nc1C | inconclusive: 14.1 µM [inhibitor, partial curve] | 
40 | O=C(Nc1ccccn1)c1c(O)c2cccc3c2n(c1=O)CCC3 | inconclusive: 11.2 µM [inhibitor, partial curve] | 
41 | CC(C)Cn1c(/C=C/c2ccco2)nc2ccccc21 | inconclusive: 15.8 µM [inhibitor, partial curve] | 
42 | CCOC(=O)C1=C(C)N(C)C(=S)NC1c1cc(OC)ccc1OC (stereo unspecified) |  | inactive: -3.47%
43 | CN(C)c1ccc(C=Nc2ccc(N(C)C)cc2)cc1 | active: 11.2 µM | 
44 | C[C@H]1[C@H]2CC[C@H]3C4CC=C5C[C@@H](N(C)C)CC[C@]5(C)C4CC[C@]23CN1C (stereo partly specified) |  | inactive: 1.74%
45 | CCOc1ccc(-n2nc(CO)c(C(=O)NCc3ccccn3)n2)cc1 | inconclusive: 15.8 µM [inhibitor, partial curve] | 
46 | CC(C)=CCC/C(C)=C/CC/C(C)=C/CSc1ccccc1C(=O)O | inconclusive: 39.8 µM [inhibitor, single point] | 

From PubChem BioAssay AID1460 (National Center for Advancing Translational Sciences (NCATS), 2008)
